Data on 1 compound can be found in patent US10233201B2, “Class of HDAC inhibitors expands the renal progenitor cells population and improves the rate of recovery from acute kidney injury” (University of Pittsburgh—Of the Commonwealth System of …, priority 2012, dated 2019).

The subject of the series is PTC-DTR mice, DT-induced AKI.

For the compound `COC(=O)CCCSc1ccccc1` [UPHD-00025, methyl 4-(phenylsulfanyl) butanoate], the “overt toxicity in treated PTC-DTR mice” value (data not shown) was “no overt signs of toxicity”. Also, where the note is “mouse, in vivo”, the “increase in the rate of renal recovery” value is reported as “approximately 30%” and the “reduction in peak BUN” value is recorded as 30%.
